Substitutions are numbered along the chain they refer to; changes in the protein carry UniProt numbers. The list shows a part of the results.
T1: RBFOX1 RRM (Homo sapiens, UniProt Q9NWB1 109-208)
T1 sequence: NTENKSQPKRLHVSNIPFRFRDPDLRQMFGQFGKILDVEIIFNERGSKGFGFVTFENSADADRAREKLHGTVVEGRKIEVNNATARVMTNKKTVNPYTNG

B1: GUUCAUG (DNA:RNA)
RNA: GGGAGACCGGAAUUCAGAUUGUCCGUUCAUGUUAAAUCCCGUCGUAGCCACCA
DNA 1: CAATCTGAATTCCGGTCTCCC
DNA 2: TGGTGGCTACGACGGGATT
B2: CCUGAUC (DNA:RNA)
RNA: B1 RNA with G25C, U26C, C28G, G31C
DNA 1: CAATCTGAATTCCGGTCTCCC
DNA 2: TGGTGGCTACGACGGGATT
B3: ACAGUGA (DNA:RNA)
RNA: GGGAGACCGGAAUUCAGAUUGUCCACAGUGAUUAAAUCCCGUCGUAGCCACCA
DNA 1: CAATCTGAATTCCGGTCTCCC
DNA 2: TGGTGGCTACGACGGGATT
B4: CGUUUAC (DNA:RNA)
RNA: B3 RNA with A25C, C26G, A27U, G28U, G30A, A31C
DNA 1: CAATCTGAATTCCGGTCTCCC
DNA 2: TGGTGGCTACGACGGGATT
B5: AAAGUAC (DNA:RNA)
RNA: B3 RNA with C26A, G30A, A31C
DNA 1: CAATCTGAATTCCGGTCTCCC
DNA 2: TGGTGGCTACGACGGGATT
B6: AUGACUG (DNA:RNA)
RNA: B1 RNA with G25A, U27G, C28A, A29C
DNA 1: CAATCTGAATTCCGGTCTCCC
DNA 2: TGGTGGCTACGACGGGATT
B7: GUCUACG (DNA:RNA)
RNA: B1 RNA with U27C, C28U, U30C
DNA 1: CAATCTGAATTCCGGTCTCCC
DNA 2: TGGTGGCTACGACGGGATT
B8: AAGCAUA (DNA:RNA)
RNA: B1 RNA with G25A, U26A, U27G, G31A
DNA 1: CAATCTGAATTCCGGTCTCCC
DNA 2: TGGTGGCTACGACGGGATT
B9: CUACUCG (DNA:RNA)
RNA: B1 RNA with G25C, U27A, A29U, U30C
DNA 1: CAATCTGAATTCCGGTCTCCC
DNA 2: TGGTGGCTACGACGGGATT
B10: GCGGAUG (DNA:RNA)
RNA: B1 RNA with U26C, U27G, C28G
DNA 1: CAATCTGAATTCCGGTCTCCC
DNA 2: TGGTGGCTACGACGGGATT
B11: GUUGGAC (DNA:RNA)
RNA: B1 RNA with C28G, A29G, U30A, G31C
DNA 1: CAATCTGAATTCCGGTCTCCC
DNA 2: TGGTGGCTACGACGGGATT
B12: GGAAUCU (DNA:RNA)
RNA: B3 RNA with A25G, C26G, G28A, G30C, A31U
DNA 1: CAATCTGAATTCCGGTCTCCC
DNA 2: TGGTGGCTACGACGGGATT
B13: CCGAUAU (DNA:RNA)
RNA: B3 RNA with A25C, A27G, G28A, G30A, A31U
DNA 1: CAATCTGAATTCCGGTCTCCC
DNA 2: TGGTGGCTACGACGGGATT
B14: UCCUAAC (DNA:RNA)
RNA: B3 RNA with A25U, A27C, G28U, U29A, G30A, A31C
DNA 1: CAATCTGAATTCCGGTCTCCC
DNA 2: TGGTGGCTACGACGGGATT
B15: CGAUUUU (DNA:RNA)
RNA: B3 RNA with A25C, C26G, G28U, G30U, A31U
DNA 1: CAATCTGAATTCCGGTCTCCC
DNA 2: TGGTGGCTACGACGGGATT
B16: GAUCACA (DNA:RNA)
RNA: B1 RNA with U26A, U30C, G31A
DNA 1: CAATCTGAATTCCGGTCTCCC
DNA 2: TGGTGGCTACGACGGGATT
B17: GCAUCCC (DNA:RNA)
RNA: B3 RNA with A25G, G28U, U29C, G30C, A31C
DNA 1: CAATCTGAATTCCGGTCTCCC
DNA 2: TGGTGGCTACGACGGGATT
B18: UUCAGUC (DNA:RNA)
RNA: B1 RNA with G25U, U27C, C28A, A29G, G31C
DNA 1: CAATCTGAATTCCGGTCTCCC
DNA 2: TGGTGGCTACGACGGGATT
B19: CGCGGUC (DNA:RNA)
RNA: B3 RNA with A25C, C26G, A27C, U29G, G30U, A31C
DNA 1: CAATCTGAATTCCGGTCTCCC
DNA 2: TGGTGGCTACGACGGGATT
B20: GUCAGUC (DNA:RNA)
RNA: B1 RNA with U27C, C28A, A29G, G31C
DNA 1: CAATCTGAATTCCGGTCTCCC
DNA 2: TGGTGGCTACGACGGGATT
B21: UCAUGAA (DNA:RNA)
RNA: B3 RNA with A25U, G28U, U29G, G30A
DNA 1: CAATCTGAATTCCGGTCTCCC
DNA 2: TGGTGGCTACGACGGGATT
B22: GCUGCAA (DNA:RNA)
RNA: B3 RNA with A25G, A27U, U29C, G30A
DNA 1: CAATCTGAATTCCGGTCTCCC
DNA 2: TGGTGGCTACGACGGGATT
B23: GUAGCAU (DNA:RNA)
RNA: B3 RNA with A25G, C26U, U29C, G30A, A31U
DNA 1: CAATCTGAATTCCGGTCTCCC
DNA 2: TGGTGGCTACGACGGGATT
B24: AAACAUA (DNA:RNA)
RNA: B3 RNA with C26A, G28C, U29A, G30U
DNA 1: CAATCTGAATTCCGGTCTCCC
DNA 2: TGGTGGCTACGACGGGATT
B25: ACGGUUG (DNA:RNA)
RNA: B3 RNA with A27G, G30U, A31G
DNA 1: CAATCTGAATTCCGGTCTCCC
DNA 2: TGGTGGCTACGACGGGATT
B26: CGGGAUC (DNA:RNA)
RNA: B1 RNA with G25C, U26G, U27G, C28G, G31C
DNA 1: CAATCTGAATTCCGGTCTCCC
DNA 2: TGGTGGCTACGACGGGATT
B27: AGUCAGA (DNA:RNA)
RNA: B3 RNA with C26G, A27U, G28C, U29A
DNA 1: CAATCTGAATTCCGGTCTCCC
DNA 2: TGGTGGCTACGACGGGATT
B28: CUAUAAG (DNA:RNA)
RNA: B1 RNA with G25C, U27A, C28U, U30A
DNA 1: CAATCTGAATTCCGGTCTCCC
DNA 2: TGGTGGCTACGACGGGATT
B29: GCAAAUA (DNA:RNA)
RNA: B3 RNA with A25G, G28A, U29A, G30U
DNA 1: CAATCTGAATTCCGGTCTCCC
DNA 2: TGGTGGCTACGACGGGATT
B30: GAUCAAU (DNA:RNA)
RNA: B1 RNA with U26A, U30A, G31U
DNA 1: CAATCTGAATTCCGGTCTCCC
DNA 2: TGGTGGCTACGACGGGATT
B31: GCACGAG (DNA:RNA)
RNA: B1 RNA with U26C, U27A, A29G, U30A
DNA 1: CAATCTGAATTCCGGTCTCCC
DNA 2: TGGTGGCTACGACGGGATT

biological target: T1, RBFOX1 RRM; assay: EMSA; HiTS-Eq, 1 nM pool, 10 min; buffer printed only for the single-RNA assays: 10 mM Tris pH 7.5, 150 mM NaCl, 3.4 mM EDTA, 0.001% NP-40, 30 C; conditions: tags: His6 N-terminal (pET28a); label: 5' 32P
How it was run: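 Purified RbFox RRM (wild type or mutant) was equilibrated for 10 min in 50 µL with 1 nM of a 5′-radiolabelled pool of RNA with 7 randomized nucleotides, its flanks annealed to DNA oligonucleotides, across increasing protein concentrations. Free RNA was separated by 8% native PAGE, excised, reverse-transcribed, PCR-barcoded and sequenced on an Illumina HiSeq 2500. Relative association constants came from read-count changes of each variant against the control reaction, normalised to the cognate motif.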

Binder	binding signal
B1	0.0107 KA relative to UGCAUGU
B2	0.0101 KA relative to UGCAUGU
B3	0.00623 KA relative to UGCAUGU
B4	0.00846 KA relative to UGCAUGU
B5	0.00371 KA relative to UGCAUGU
B6	0.0149 KA relative to UGCAUGU
B7	0.0132 KA relative to UGCAUGU
B8	0.00459 KA relative to UGCAUGU
B9	0.00852 KA relative to UGCAUGU
B10	0.0133 KA relative to UGCAUGU
B11	0.00422 KA relative to UGCAUGU
B12	0.0203 KA relative to UGCAUGU
B13	0.00448 KA relative to UGCAUGU
B14	0.00119 KA relative to UGCAUGU
B15	0.01 KA relative to UGCAUGU
B16	0.00238 KA relative to UGCAUGU

Binder	binding signal
B17	0.0182 KA relative to UGCAUGU
B18	0.00953 KA relative to UGCAUGU
B19	0.00991 KA relative to UGCAUGU
B20	0.011 KA relative to UGCAUGU
B21	0.00544 KA relative to UGCAUGU
B22	0.0197 KA relative to UGCAUGU
B23	0.0106 KA relative to UGCAUGU
B24	0.00076 KA relative to UGCAUGU
B25	0.0233 KA relative to UGCAUGU
B26	0.0318 KA relative to UGCAUGU
B27	0.0136 KA relative to UGCAUGU
B28	0.0115 KA relative to UGCAUGU
B29	0.000733 KA relative to UGCAUGU
B30	0.00806 KA relative to UGCAUGU
B31	0.0362 KA relative to UGCAUGU

Reference: PMC9911399, “Two distinct binding modes provide the RNA-binding protein RbFox with extraordinary sequence specificity”
